Source: paper PMC4336329 (PLoS ONE, 2015)
The campaign covered roughly 310,000 compounds. About 14,000 (4.5%) showed an effect of 50% or more. The effect is printed as a negative number. The list shows a part of the results.

biological target: human ether-à-go-go-related gene (hERG) potassium channel (human, UniProt Q12809); assay: primary screen, population patch clamp on CHO cells stably expressing hERG
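Note: peak tail current of the secondary pulse compared with the same well before compound.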

human ether-à-go-go-related gene (hERG) potassium channel, sequence (Q12809 whole entry, looked up): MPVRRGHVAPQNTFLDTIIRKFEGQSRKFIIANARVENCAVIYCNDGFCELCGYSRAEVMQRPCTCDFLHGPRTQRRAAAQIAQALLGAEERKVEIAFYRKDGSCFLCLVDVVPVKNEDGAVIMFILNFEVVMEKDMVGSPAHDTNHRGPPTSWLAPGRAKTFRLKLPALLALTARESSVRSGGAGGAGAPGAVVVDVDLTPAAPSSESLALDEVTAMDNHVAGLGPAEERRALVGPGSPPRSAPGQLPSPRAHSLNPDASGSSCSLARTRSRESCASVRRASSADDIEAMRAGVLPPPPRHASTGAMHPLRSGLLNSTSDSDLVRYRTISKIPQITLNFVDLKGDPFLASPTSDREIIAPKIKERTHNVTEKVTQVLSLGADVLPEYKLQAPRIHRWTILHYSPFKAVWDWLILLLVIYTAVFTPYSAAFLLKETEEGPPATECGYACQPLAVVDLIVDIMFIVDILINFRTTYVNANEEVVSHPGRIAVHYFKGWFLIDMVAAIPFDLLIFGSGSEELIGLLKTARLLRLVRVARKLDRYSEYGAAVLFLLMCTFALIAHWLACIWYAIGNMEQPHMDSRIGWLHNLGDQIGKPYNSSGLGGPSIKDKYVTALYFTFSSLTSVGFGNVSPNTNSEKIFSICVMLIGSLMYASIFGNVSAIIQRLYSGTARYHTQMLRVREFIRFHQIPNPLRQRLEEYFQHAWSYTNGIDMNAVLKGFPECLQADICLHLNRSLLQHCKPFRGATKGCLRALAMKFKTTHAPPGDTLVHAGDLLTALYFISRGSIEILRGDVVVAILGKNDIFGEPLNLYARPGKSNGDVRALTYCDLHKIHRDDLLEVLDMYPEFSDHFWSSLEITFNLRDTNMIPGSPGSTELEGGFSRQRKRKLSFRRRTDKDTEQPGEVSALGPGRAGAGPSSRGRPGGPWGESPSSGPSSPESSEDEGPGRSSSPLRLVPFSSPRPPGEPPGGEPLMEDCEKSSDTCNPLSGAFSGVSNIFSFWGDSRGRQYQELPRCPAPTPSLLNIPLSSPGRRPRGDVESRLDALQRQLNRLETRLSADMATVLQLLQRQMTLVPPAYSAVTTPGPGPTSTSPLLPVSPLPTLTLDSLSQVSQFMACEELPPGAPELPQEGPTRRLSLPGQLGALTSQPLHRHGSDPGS

| Structure (SMILES) | hERG current change (%, negative = inhibition) at 10uM [%] |
| --- | --- |
| COc1ccccc1N1CCN(S(=O)(=O)c2c(C)sc3ncn(CC(=O)NCCN(C)C)c(=O)c23)CC1 | -1.05 |
| Oc1ccc(-c2nc(-c3ccc(F)cc3)c(-c3ccncc3)[nH]2)cc1 | -3.35 |
| COc1ccc(NC(=O)CSc2nc3cccnc3n2C)cc1 | -12.4 |
| O=Cc1cn(-c2ccccc2)nc1-c1cc2c(ccc3ccccc32)oc1=O | 3.09 |
| CSc1ccccc1NC(=O)CN1CCN(S(=O)(=O)c2ccccc2[N+](=O)[O-])CC1 | -52.2 |
| COC(=O)c1ccc(/C=N/NC(=O)c2cccc(F)c2)cc1 | 6.65 |
| COc1ccccc1NS(=O)(=O)c1cccc(C(=O)N2CCN(Cc3ccc4c(c3)OCO4)CC2)c1 | -61.4 |
| CCCOc1ccc(C(O)(CCN2CCCCC2)c2ccccc2OC)cc1.Cl (centres unmarked) | -29.9 |
| O=S(Cc1ccc(Br)cc1)Cc1nnc(SCc2ccc(Br)cc2)n1-c1ccccc1 (centres unmarked) | -2.14 |
| Cc1ccc(OCC(=O)Nc2ccc(F)cc2)c([N+](=O)[O-])n1 | -9.47 |
| CC1(C)Cc2c(c(N3CCOCC3)nc3sc4c(NCc5ccccc5)nnnc4c23)CS1 | -1.54 |
| Cc1cc(N2CCN(C)CC2)ccc1NC(=O)c1c2c(nc3ccccc13)CCN(Cc1ccccc1)C2 | 11.1 |
| CN1/C(=C\C(=O)Nc2cccc(Cl)c2)C(C)(C)c2ccccc21 | 7.17 |
| O=C(NCc1ccco1)C1CCCN(S(=O)(=O)c2cccc3nonc23)C1 (centres unmarked) | -4.03 |
| O=P(c1ccccc1)(c1ccccc1)C(O)c1ccncc1 (centres unmarked) | 23.6 |
| CCOC(=O)c1c(C)[nH]c(C(=O)NCCN2CCOCC2)c1C | 21.1 |
| COc1ccc(-c2cc(C(=O)Nc3c(C)n(C)n(-c4ccccc4)c3=O)no2)cc1 | 6.42 |
| COc1ccc(-c2c(C#N)c(SCC(N)=O)nc3c2CCCC3)cc1 | -2.24 |
| COc1ccc(OC)c(NC(=O)CN2C(=O)CSc3ccc(S(=O)(=O)N4CCCC4)cc32)c1 | -1.42 |
| NS(=O)(=O)c1cccc(NC(=O)CCN2C(=O)C3CCCCC3C2=O)c1 (centres unmarked) | 6.41 |
| CCCN1CCN(C(=S)Nc2sc(CC)cc2C(=O)OC)CC1 | -1.29 |
| CC1CC(C)CN(C(=O)CNS(=O)(=O)c2cccs2)C1 (centres unmarked) | 9.23 |

| Structure (SMILES) | hERG current change (%, negative = inhibition) at 10uM [%] |
| --- | --- |
| Cn1c(=NC(=O)CSCC(=O)N2CCCCC2)sc2ccccc21 | -11.3 |
| CCC(C)CCN1C(Nc2ccccc2)=NC[C@@H]1C (some centres unmarked) | -4.88 |
| CCOc1ccc(NC(=O)CN(C)C(=O)c2cn3ccccc3n2)cc1OCC | -19.2 |
| Cc1ccccc1NC(=O)CSc1ccc(-c2ccccn2)nn1 | -8.58 |
| COC(=O)c1ccc(C(=O)OC)c(NC(=O)C2CC2)c1 | -68.9 |
| O=C(CN1C(=O)C(=O)N(C2CCCC2)C1=O)NCCc1ccc(Cl)cc1Cl | 10.4 |
| CCOc1cc(N2CCOCC2)c(OCC)cc1NC(=O)COC(=O)[C@@H]1CCCN1S(=O)(=O)c1ccccc1F | -24.2 |
| COc1cc(OC)cc(C(=O)NNC(=O)c2ccc(-n3cncn3)c([N+](=O)[O-])c2)c1 | 5.46 |
| O=C(Cn1cc(C(F)(F)F)cc(Cl)c1=O)NCc1ccc(Cl)cc1 | 24.2 |
| N#Cc1nc(COc2ccc(Cl)cc2Cl)oc1N1CCOCC1 | -14.1 |
| c1ccc(C2Nc3ccccc3-c3nc4ccccc4n32)cc1 (centres unmarked) | -18.1 |
| CCCCC1=CC2=C(c3ccco3)C(=O)C(C)(OC(=O)c3ccc(OC)cc3)C(=O)C2=CN1CCOC (centres unmarked) | -8.1 |
| S=c1nc(-c2ccccc2)n(CCCn2ccnc2)c2c1CCCC2 | 7.61 |
| COc1cccc(OC)c1C(=O)Nc1ccc(C(=O)c2ccncc2)cc1 | -17.9 |
| Cn1c(CCc2ccccc2)nnc1SCC(=O)N1CCCC1 | 5.31 |
| O=C(Cc1ccc(F)cc1)NC1CCS(=O)(=O)C1 (centres unmarked) | 9.36 |
| CCOc1cc(NC(=O)c2ccccn2)c(OCC)cc1NC(=O)c1ccc(C)cc1 | -13.7 |
| Cc1ccc(C(=O)NCCCNC(=O)COc2ccc(Cl)cc2)cn1 | -0.37 |
| FC(F)(F)c1nnc2ccc(N3CCCCCC3)nn12 | -14.3 |
| Cc1cccc(Nc2nc3c(c(=O)n(C)c(=O)n3C)n2CC(O)CO)c1 (centres unmarked) | -0.943 |
| Cc1ccc(N2CCN(S(=O)(=O)N3CCCCC3)CC2)cc1Cl | 8.45 |
| Cc1ccnc(SCCn2c(N3CC(C)CC(C)C3)nc3c2c(=O)n(C)c(=O)n3C)n1 (centres unmarked) | -4.49 |

| Structure (SMILES) | hERG current change (%, negative = inhibition) at 10uM [%] |
| --- | --- |
| O=C(NC1CCN(c2ncccn2)CC1)c1cccc(F)c1 | 16.1 |
| Cc1ccccc1NC(=O)Cn1c(CCC(=O)O)ccc1-c1cccs1 | 15.4 |
| COc1ccc2c(Cl)c(-c3nnco3)sc2c1 | 5.13 |
| Cc1cccc(NC(=O)c2cc3c(s2)-c2c(C)cccc2OC3)n1 | 29.2 |
| O=C(COC(=O)c1cccc(S(=O)(=O)N2CCCCCC2)c1)Nc1ccccc1C(F)(F)F | 26.1 |
| Cl.OCCN1CCN(CC#CCn2c3ccccc3c3ccccc32)CC1 | -28 |
| Cn1nnc2cc(C(=O)Nc3ccccc3)ccc21 | 8.48 |
| CCCN(CCC)C(=O)Cc1c(-c2ccc(Cl)cc2)nc2c(Cl)cc(Cl)cn12 | -0.882 |
| Cc1ccc(C)c(N(CC(=O)N2CCc3ccccc3C2)S(C)(=O)=O)c1 | -29.4 |
| COc1ccccc1C1CC(c2ccc(NS(C)(=O)=O)cc2)=NN1S(=O)(=O)c1ccccc1 (centres unmarked) | -69.6 |
| CCCCCCOC(=O)CCn1[nH]c(=O)c2ccccc2c1=O | 16.8 |
| COc1ccc(NC(=O)[C@@H]2CCCN2C(=O)c2cccs2)cc1S(=O)(=O)N1CCCCC1 | -6.06 |
| COC(=O)c1cn(NC(=O)c2ccc([N+](=O)[O-])c(C)c2)c(=O)c2ccccc12 | -6.3 |
| CNC(=O)C(=O)Nc1cc2c3c(c1)CCC(=O)N3CCC2 | 9.67 |
| CCOCCCNC(=O)NC(=O)CN1CCN(S(=O)(=O)c2ccc3c(c2)OCCO3)CC1 | 18.7 |
| Cc1nc2sccn2c1P(c1c(C)nc2sccn12)c1c(C)nc2sccn12 | -5.06 |
| COc1ccccc1/C=C/CN1CC(C)OC(C)C1 (centres unmarked) | -9.11 |
| O=C(NC1=NCCS1)c1cccc(F)c1 | 8.42 |
| NC(=O)CCN1CCN(Cc2nc(C(c3ccccc3)c3ccccc3)no2)CC1 | -25.6 |
| COc1ccc(/C=N/NC(=O)Cn2c(Cc3ccc(OC)c(OC)c3)nc3ccccc32)cc1OC | 7.62 |
| COC(=O)C1=CN(C2CC2)C=C(C(=O)OC)C1c1ccccc1OC | -12.2 |
| Cc1cccc(/C=N/NC(=O)c2ccc(F)cc2)n1 | 11.5 |

| Structure (SMILES) | hERG current change (%, negative = inhibition) at 10uM [%] |
| --- | --- |
| CC(NC(=O)c1cc(S(=O)(=O)N2CCOCC2)ccc1F)c1ccc(-n2ccnc2)cc1 (centres unmarked) | -72.2 |
| CCOc1ccc(/C=C2\N=C(c3cccs3)OC2=O)cc1OC | 12.8 |
| COc1ccc(Nc2oc(COc3ccc(C)cc3)nc2C#N)cc1 | -11.4 |
| O=C(CCc1nnc(CCCCc2ccccc2)o1)NCCC1CCCCO1 (centres unmarked) | 7.94 |
| Cc1ccc(N(C)S(=O)(=O)c2c[nH]c3ccc([N+](=O)[O-])cc23)cc1 | 24 |
| O=C(c1ccc(CS(=O)Cc2ccc(Cl)cc2)o1)N1CCN(c2ccc(F)cc2)CC1 (centres unmarked) | -62.1 |
| CCCn1c(SCc2nc3ccccc3s2)n[nH]c1=O | -44.4 |
| S=C1Cc2ccccc2C(c2ccc(Cl)cc2)N1 (centres unmarked) | 8.59 |
| CCOc1cc(/C=C(\C#N)C(N)=O)ccc1OS(=O)(=O)c1ccccc1 | -5 |
| COc1ccccc1N1CCN(C(=O)C2CCCO2)CC1 (centres unmarked) | 11.1 |
| COc1ccc(CC(=O)Nc2ccc(N3CCOCC3)cc2)cc1S(=O)(=O)N1CCOCC1 | 0.936 |
| CCC(C)CCN1C(Nc2ccccc2)=NC[C@@H]1CC(C)C (some centres unmarked) | -41.1 |
| CCN1C(=O)[C@@H]2[C@H](C1=O)[C@@H]1C(=O)Nc3ccccc3C(=O)N1[C@@H]2c1cccc(C)c1 | -27.4 |
| Cc1nn(C)cc1C(C)Nc1nc2nonc2nc1N1CCCCC1 (centres unmarked) | 0.196 |
| COc1ccc(NC(=O)c2cccc(NC(=O)c3ccccc3)c2)cc1 | 2 |
| O=C(COC(=O)/C=C/c1cccc(Br)c1)NCCc1ccccc1 | 5.72 |
| CCN(CC)CCCN(Cc1cc2cc3c(cc2[nH]c1=O)OCCO3)C(=O)Nc1ccccc1 | -41.7 |
| Cn1c(=O)c2cc3ccccc3nc2n(C)c1=O | 14.4 |
| CC(C)c1cc(Nc2cccc(O)c2)cc(C(C)C)c1O | 4.02 |
| Cc1ccc(-n2cnc3c(sc4nccc(N(C)C)c43)c2=O)cc1 | -16.4 |
